± gives the standard deviation of the averaged measurements. Whole data set: some 33,000 sequences, median “E-score (dimensionless, -0.5 to 0.5)” near -0.049, cut for the highest 2% near 0.37. The list shows a part of the results.
Test system: T1, PmTbr T-box DNA-binding domain (GST fusion)
T1 sequence: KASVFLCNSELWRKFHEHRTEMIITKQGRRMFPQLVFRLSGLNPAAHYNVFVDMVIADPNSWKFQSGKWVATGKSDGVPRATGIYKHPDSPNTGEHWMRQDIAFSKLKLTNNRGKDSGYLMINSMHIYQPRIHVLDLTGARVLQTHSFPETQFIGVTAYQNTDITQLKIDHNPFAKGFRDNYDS
Experiment: PBM E-score of 8-mer (E-score (dimensionless, -0.5 to 0.5)); Tbr is Tbrain of the sea star Patiria miniata (Pm) or the sea urchin Strongylocentrotus purpuratus (Sp); higher = stronger binding preference; most listed sequences are background and not binding sites
Conditions: the construct has about 5 more residues each side
Method in brief: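 Primer extension turned Universal Agilent oligonucleotide arrays double-stranded. They were incubated with 200 nM protein in PBS (pH 7.5); the protein was a GST-fused Tbr T-box DNA-binding domain expressed in BL21 E. coli at 20 °C and purified on glutathione. Every ungapped 8-mer was scored from the scanned, quantified probe intensities, and the Universal PBM Analysis Suite gave each an enrichment E-score averaged over duplicate arrays.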

| Sequence | PBM E-score of 8-mer |
| --- | --- |
| AAGGAAAG | -0.0595 ± 0.01 |
| CTCAAGTC | -0.0501 ± 0.022 |
| AACGGGGC | -0.0558 ± 0.11 |
| AATATGGT | -0.157 ± 0.052 |
| ATAGGACC | -0.184 ± 0.015 |
| AAACGCCA | 0.08653 ± 0.00074 |
| CTTGTGAA | 0.329 ± 0.012 |
| AACGTCAA | -0.0341 ± 0.049 |
| CGTAGTCC | -0.208 ± 0.01 |
| AAGGTGCA | 0.4 ± 0.011 |
| CCTACGAC | -0.204 ± 0.0051 |
| CGCTGAGC | 0.0459 ± 0.011 |
| TCGTAAAA | -0.0417 ± 0.095 |
| CCAACCAA | -0.2261 ± 0.0014 |
| ACACGGCC | 0.0316 ± 0.032 |
| CAGCCCTC | -0.124 ± 0.063 |
| AGGCGGTG | 0.046 ± 0.021 |
| ACTAGCCG | 0.0604 ± 0.025 |
| CCTCTGCA | -0.044 ± 0.055 |
| CTATGGCA | 0.1719 ± 0.00059 |
| TCATGCCA | 0.129 ± 0.0089 |
| CTCTCCAA | -0.101 ± 0.046 |
| CCGTTGAG | -0.186 ± 0.02 |
| ATGGCACA | 0.103 ± 0.0048 |
| TCTTTTAA | 0.0798 ± 0.059 |

| Sequence | PBM E-score of 8-mer |
| --- | --- |
| CCGCGGGA | -0.189 ± 0.065 |
| ACCGTAAG | 0.0296 ± 0.0033 |
| ACTAACTA | 0.125 ± 0.03 |
| CCGGAGGA | -0.2 ± 0.036 |
| ATGGGCTA | -0.147 ± 0.005 |
| AAGTCTCG | 0.185 ± 0.0019 |
| CAAAAGTA | -0.123 ± 0.056 |
| GGTTTTTA | -0.202 ± 0.0096 |
| AGTTGGGC | -0.0671 ± 0.067 |
| GACCGAAA | -0.0308 ± 0.027 |
| ATAGCTAC | -0.194 ± 0.076 |
| ACAATAAA | -0.174 ± 0.095 |
| CCCGTTAA | 0.196 ± 0.0089 |
| GCTCGAGA | -0.0327 ± 0.038 |
| ACGACGCT | 0.088 ± 0.029 |
| AACATTGG | 0.0336 ± 0.043 |
| AGACATCA | -0.124 ± 0.015 |
| CAGGGTTA | -0.0478 ± 0.038 |
| ACTGTCAC | 0.392 ± 0.018 |
| CGACGTCC | -0.17 ± 0.024 |
| GTTGTACA | 0.0957 ± 0.022 |
| GGCCATGA | -0.214 ± 0.055 |
| GCTTATGA | -0.18 ± 0.0093 |
| GCCGTTGA | -0.0383 ± 0.037 |
| CGGGGTCC | -0.268 ± 0.016 |

| Sequence | PBM E-score of 8-mer |
| --- | --- |
| GCTCGATA | -0.0648 ± 0.038 |
| AGATCTCA | 0.1 ± 0.044 |
| GAGAACGA | 0.06861 ± 0.00056 |
| AAGGGTCG | -0.261 ± 0.018 |
| AGGCATTA | 0.00833 ± 0.012 |
| CATCGACG | 0.0899 ± 0.077 |
| GGCTGTAA | -0.00799 ± 0.063 |
| GTAGTGAC | 0.216 ± 0.032 |
| CGCATCCA | -0.133 ± 0.051 |
| TCTCTGCA | -0.0957 ± 0.045 |
| AAGTTGTA | -0.0651 ± 0.0049 |
| CCACATCG | 0.0335 ± 0.06 |
| CGGGGATA | -0.166 ± 0.042 |
| ACGCCACC | 0.261 ± 0.053 |
| ATAATTTG | -0.197 ± 0.017 |
| AAACAACA | 0.096 ± 0.031 |
| CGATTATC | 0.0589 ± 0.052 |
| TCTGAAGA | -0.207 ± 0.019 |
| CCTCGACA | 0.214 ± 0.032 |
| CTGTCAGA | 0.211 ± 0.014 |
| CTACAGTA | -0.0388 ± 0.061 |
| CTGCAATC | -0.0811 ± 0.026 |
| TAAGATGA | -0.119 ± 0.045 |
| ATCCGTAG | -0.159 ± 0.035 |
| GACAATAC | -0.0362 ± 0.021 |

| Sequence | PBM E-score of 8-mer |
| --- | --- |
| ATGGAGAA | -0.273 ± 0.038 |
| AGTCCGAC | -0.194 ± 0.097 |
| AGAACGGA | -0.135 ± 0.0092 |
| GGAAATAC | -0.0419 ± 0.014 |
| AGCGTTAC | 0.0407 ± 0.036 |
| CCCCAGAC | -0.109 ± 0.082 |
| ACGCAACG | -0.0816 ± 0.088 |
| ATATAGAC | -0.171 ± 0.026 |
| CACCGTAA | 0.2 ± 0.045 |
| ACTCAAAA | -0.0256 ± 0.025 |
| CACCTCGA | 0.4483 ± 0.002 |
| AGTCGTTC | 0.0412 ± 0.0045 |
| AGATGGAT | -0.121 ± 0.036 |
| ATTAGAGG | -0.245 ± 0.012 |
| CCCAGGTC | -0.157 ± 0.069 |
| ATTCTTAC | -0.164 ± 0.032 |
| CCTGCGCC | -0.185 ± 0.067 |
| AAAACTCG | -0.0772 ± 0.064 |
| TCACTGAA | -0.00506 ± 0.034 |
| CATCTCTC | 0.127 ± 0.025 |
| AAAACTGA | -0.181 ± 0.049 |
| GATGGCAC | 0.226 ± 0.012 |
| AGTCTGAC | 0.00698 ± 0.016 |
| GGTGGGTA | -0.147 ± 0.0071 |
| CGCGACCA | 0.158 ± 0.0094 |

| Sequence | PBM E-score of 8-mer |
| --- | --- |
| CACGATTA | 0.0478 ± 0.0013 |
| ATCCTTCG | -0.104 ± 0.00045 |
| CGTAGCGA | -0.0568 ± 0.064 |
| ACTCGAAT | -0.111 ± 0.012 |
| TCAGCGAA | 0.0664 ± 0.033 |
| CAGCTTCA | 0.252 ± 0.034 |
| AGATTATA | -0.0156 ± 0.077 |
| AAACACGA | 0.0913 ± 0.081 |
| ATTCTCCG | 0.0879 ± 0.092 |
| CACACGAG | 0.0954 ± 0.024 |
| ATTTTGTA | -0.0288 ± 0.12 |
| CCGCAAGG | -0.0428 ± 0.021 |
| ATTGCGGA | -0.0212 ± 0.064 |
| GAGTCCAC | -0.0836 ± 0.065 |
| CTAACGCA | 0.203 ± 0.054 |
| AAGACGCT | -0.0844 ± 0.043 |
| TATGAACA | -0.116 ± 0.05 |
| GCGAGGCA | 0.197 ± 0.02 |
| AAATGGAA | -0.157 ± 0.022 |
| ATTTAATA | 0.0973 ± 0.0012 |
| AAGAAGCA | -0.224 ± 0.022 |
| GCGCTACC | 0.345 ± 0.021 |
| TTATCAAA | -0.0375 ± 0.11 |
| CGAGAAAA | 0.233 ± 0.021 |
| CTAATCGC | 0.097 ± 0.035 |

| Sequence | PBM E-score of 8-mer |
| --- | --- |
| AGTAATAT | -0.0505 ± 0.075 |
| CTCAGACC | -0.271 ± 0.024 |
| GTGAGGTA | 0.215 ± 0.027 |
| CAGCCACC | 0.096 ± 0.0017 |
| CAGGGCTC | -0.316 ± 0.076 |
| CACAAAAG | 0.0694 ± 0.01 |
| CACCGTGC | 0.156 ± 0.05 |
| CCCGGACC | -0.184 ± 0.022 |
| CCGCGGAA | -0.0331 ± 0.048 |
| CTACGAAA | 0.00341 ± 0.023 |
| CATAAAGA | -0.119 ± 0.027 |
| AGCACCAC | 0.115 ± 0.054 |
| AATACCGT | -0.0344 ± 0.0088 |
| CTCTGACA | 0.241 ± 0.028 |
| GCCGTGCC | 0.0438 ± 0.036 |
| TCAGTACA | -0.111 ± 0.0065 |
| ATGTTCCC | -0.209 ± 0.046 |
| AACTGCAA | -0.106 ± 0.07 |
| CCCCGTCA | 0.255 ± 0.029 |
| ACCCCTAG | -0.0734 ± 0.065 |
| ACGTATAA | -0.122 ± 0.059 |
| ATTCCAGC | -0.23 ± 0.042 |
| CGGATGCA | -0.161 ± 0.014 |
| GGTGAGAC | 0.3824 ± 0.0024 |
| GAATTTGC | 0.185 ± 0.0034 |

| Sequence | PBM E-score of 8-mer |
| --- | --- |
| AGTCTTCC | -0.221 ± 0.06 |
| AGGAAAGC | -0.168 ± 0.0094 |
| ACTAAAGT | -0.046 ± 0.036 |
| CGACAATC | 0.198 ± 0.022 |
| CTTGAAGC | -0.131 ± 0.033 |
| GAACTCAC | 0.0408 ± 0.015 |
| ATAGGCGC | 0.31 ± 0.015 |
| ACTGACCC | -0.226 ± 0.11 |
| AGTAGTGG | -0.0452 ± 0.05 |
| CGGGTCTA | -0.0532 ± 0.011 |
| AATTAGAA | -0.2 ± 0.0053 |
| AGGCGGGC | -0.0452 ± 0.043 |
| ACATGTCA | 0.238 ± 0.0027 |
| ACCCGTAC | -0.198 ± 0.038 |
| ATAAAGGC | -0.0452 ± 0.0065 |
| AGAACTCA | -0.17837 ± 1.4e-05 |
| AGTGATCA | -0.104 ± 0.025 |
| GGCGCACC | 0.00299 ± 0.059 |
| CCAAACCA | -0.0605 ± 0.059 |
| AGACGTAT | -0.102 ± 0.0031 |
| AACTGCAG | -0.0653 ± 0.069 |
| GTTATTAA | 0.067 ± 0.082 |

— the supplement of paper PMC4166925
